Experimental data as given in the supplement of paper PMC3334620.
Over roughly 33,000 sequences, “E-score (-0.5 to 0.5)” has its median near -0.017; the highest 2% begin near 0.3. This is one part of the list.

molecular target: T1, Sut1 (UniProt P53032); test: PBM E-score (8-mer binding enrichment) (E-score (-0.5 to 0.5)); higher = stronger / more preferred TF binding; most listed sequences are background and not binding sites; settings: protein concentration: 200 nM; construct: GST-full length
T1 sequence: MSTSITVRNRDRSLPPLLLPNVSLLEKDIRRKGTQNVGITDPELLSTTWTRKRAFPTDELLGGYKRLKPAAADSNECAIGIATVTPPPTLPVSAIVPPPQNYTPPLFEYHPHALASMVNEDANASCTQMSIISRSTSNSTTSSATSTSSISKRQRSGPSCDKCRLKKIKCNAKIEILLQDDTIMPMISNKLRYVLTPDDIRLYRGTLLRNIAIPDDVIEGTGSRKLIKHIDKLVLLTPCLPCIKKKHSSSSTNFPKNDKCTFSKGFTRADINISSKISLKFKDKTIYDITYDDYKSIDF
How it was run: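 Masliner-normalised scans of fluorescent anti-GST signal were the basis for scoring. That signal came from GST-tagged yeast transcription factors applied at about 100-200 nM to double-stranded universal all-10-mer Agilent arrays on fresh or once-stripped slides. Each ungapped eight-base word, pooled with its reverse complement, received an E-score from the Universal PBM Analysis Suite.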

Sequence	PBM E-score
ATTCAGAA	0.12
CGGCACTC	0.0659
CACGATCC	0.00496
ACTATTCA	0.214
CGGTGCAC	-0.267
CTATAGCC	-0.195
AAGCGCTT	0.162
CATGGCCC	-0.197
ATCCGGTG	0.0918
CCGTATAC	0.105
CCGAGACA	0.0464
TCCGTTAA	0.326
CAACCGCC	-0.161
TAGGTTAA	0.11
GGGACAAA	-0.142
CTCCAGAC	-0.0572
CGGTTCCC	-0.0494
CTTATGTC	0.0332
GCCTAACC	-0.116
TATGTGAA	-0.0499
CAAAGTCC	0.282
TAGAGTAA	0.184
GTTGGCAA	-0.0298
AGATCAAG	-0.00203
AAGGTTCG	0.13

Sequence	PBM E-score
ACGTATCA	0.0656
CCGTGTCC	0.053
AACTAATA	0.324
CCAGGTAA	-0.0542
GCACATAA	-0.0947
CCCCTTCG	-0.348
CAGCGCCG	-0.155
CAGCAGAC	-0.264
CGGAGAAA	0.391
AACCTGCC	-0.0894
CCAGGTAC	-0.31
CGAGTAGA	-0.0364
ACTTGATG	0.0275
ACAAAATC	0.204
CAAAGCCG	-0.00976
GGGAATCA	-0.126
ACAAAAGT	0.0749
TAAAGGCA	0.136
AAGGGACG	-0.245
GATGGGGA	-0.1
AACCACAT	0.0288
GAAGTAGC	-0.0793
GGCCTTTA	-0.125
GTGGCCAA	-0.141
GGGTTGAA	-0.0843

Sequence	PBM E-score
ATCAGTCC	-0.204
CCTTAAGG	0.0101
CGCATACG	0.0145
ACCTGCGT	0.0426
CGCTAGGA	-0.00382
TCTCCTCA	-0.0295
CCGAGGTC	0.209
AAGTAAGC	0.0988
ATCCTTAA	-0.0598
GGAGTCTA	0.182
GGCGAGTA	-0.166
ATATCTCA	0.279
GAGGCTGA	-0.131
ACCCACGA	-0.222
GTGACTAA	0.055
GAGTCCGA	0.476
GCCTAAGA	-0.197
TACGAGTA	0.121
CTCCAGCC	-0.155
CTCGTCCC	-0.169
ACCTTTCG	0.0504
ATTATTTG	0.319
GTGGGGGA	-0.385
GATATAAC	0.206
CTTCCCAA	-0.0742

Sequence	PBM E-score
CGATTGGC	0.0185
ATCACCCG	-0.204
GTTCTGGA	0.047
ACAGGTAA	0.0408
AATGGATG	-0.00809
AATGTTTC	0.146
ACACAACA	0.128
ACAAGTAT	0.135
AAGAGTGC	-0.02
TCAAGGAA	-0.127
AATCGCCA	-0.0545
AGTGGTAT	0.0378
TCCCGAAA	0.0428
AGACTTAC	-0.0551
ATGCTCCG	0.262
ACCACCCA	0.00946
AATTTGGT	0.166
GACGCGGC	-0.0396
CAAGCGGC	-0.0127
CTCTTTAC	0.119
ACTTGACA	-0.148
CGACGTTA	0.113
ACTACGGC	0.033
TCACTTAA	0.181
AAGCCCCT	-0.23

Sequence	PBM E-score
ATATTGAC	0.147
GTAATACA	0.13
ACCATTAG	0.194
GTTGTCAA	-0.0747
GCACATGA	-0.24
CCCGGTCA	-0.0703
GCTATTAA	0.155
GGAATACC	-0.0435
AGAAAACC	0.0677
ATTCTGTC	0.0251
ACATAGCT	-0.148
GTCTCTGA	0.0486
AATGTCAC	-0.0184
CGCTTTAA	-0.0751
TACATCTA	0.163
ACGTCCGC	-0.121
ACTCGAAA	0.0594
GAGAGACC	-0.172
ACAACCGT	-0.19
TTGACCAA	-0.0982
ACAACCTA	0.0115
ACATGGCC	-0.125
ATAAACTA	0.192
CGTAACAA	0.164
ACGAGTCG	-0.0772

Sequence	PBM E-score
CGAAGGAG	-0.0692
CCTGAGGC	-0.213
CCAGCCCA	-0.293
CAAACGAC	0.0628
AGGGCGAA	-0.139
AAAGCGTG	-0.131
TGTCGGAA	0.218
GATCGCCA	-0.111
GACCGGAA	0.179
CATCCATG	-0.207
CCGAACGA	0.225
GGGAAACA	-0.0511
AATGTATG	0.105
ATTTTTTA	0.233
AGCCCGCG	0.0167
TACTAAAA	0.207
TCCTCACA	0.00158
ACGGAGAG	0.247
ACCCGTCT	-0.182
AAATGTCA	0.0281
GAGAGTGA	0.0154
CGGAATAC	0.325
CATCCTAG	-0.12
AGGAAGAG	-0.16
AGGTCTCA	-0.038

Sequence	PBM E-score
ATCGTACA	0.168
ACACTCTA	0.0904
ACTAGTAG	0.0189
AGAACGAT	0.0176
CTTCGACA	-0.0366
ATGCGCAC	-0.146
GACACCTC	-0.182
CACTCTTA	-0.0438
CTTGAAAC	0.121
ACTCCAGA	0.0869
GCCCGGGC	-0.0214
GCGTGTCA	0.0977
CCCGCAAG	-0.313
ACACCGCA	0.0401
AATTTTTA	0.229
AACACCCG	0.0517
AATTAGGA	0.137
AAGAAGGA	0.0609
TGAGTGCA	-0.0681
GAGTCAAC	-0.0526
AAGGATAT	0.123
ATTAAGGG	-0.0806
CGTTTTTC	0.161
CCGCAGAC	0.0291
GACACCGC	-0.0517

Sequence	PBM E-score
ACAGAGGC	-0.292
ATAAGTAC	0.166
CCAAGGCG	-0.0929
GGAAGTGA	-0.0229
AGATTGAG	0.0927
AAGATGAC	-0.052
CAATCACC	-0.0889
CAAAACGC	0.11
CGCGCGCC	0.00566
ACTAAATC	0.199
CACACGGC	-0.0702
AAAGATGA	0.0367
CAGTATAG	0.0135
AATGAACT	0.11
TCATCCAA	0.154
GCAATTGA	0.104
CTGTTAGC	-0.031
GCGGGAGA	-0.204
AACGGGGA	0.0281
GCCAAGGA	-0.174
CGCTTTAC	-0.00074
CGTGTTTA	0.187
CGCGGACA	0.237
GCCTGCGA	-0.217
AATTTAAA	0.286

Sequence	PBM E-score
AGGTAATG	-0.0464
GCTTGGAA	-0.102
CCTGGCCG	-0.0954
ACACTTCG	-0.102
GGACCTAC	0.197
CACAGAGG	-0.262
CCTATGCA	-0.139
AAATTTCT	0.252
ACGACCAA	0.0789
CTCGTGAC	-0.235
CAGAAAAA	0.0845
CACCTACC	-0.206
GGGCTAAA	-0.216
ATCTCGAG	0.019
CATTCTAG	-0.0271
ACACCGCT	-0.197
CGGGTTTA	0.144
AGCGGGGA	-0.149
AGTGCTCG	-0.0481
